From PubChem BioAssay (NCATS)
Several values for one entry are separate records, joined by “and”; a condition that tells them apart may be missing. Identical values can stand only once. The inconclusive results got no clear call from the source; some entries with a clear call stand among them for comparison. Where the call is inconclusive, the potency comes from a doubtful curve fit. Activity calls are given as the source filed them. Calls come from the whole dose curve; as a rule, active = well fitted inhibition curve with a large enough effect; inconclusive = small, poorly fitted or top-dose-only effect; inactive = flat fitted curve, though single readings scatter.

Assay: qHTS for Inhibitors of Plasmodium falciparum (7G8) proliferation (AID 504316); note: nearly all actives have a fitted effect of over 65% in size
Conditions: P. falciparum 7G8 in erythrocytes, SYBR Green DNA, 72 h; series mostly up to 6.7 µM
How it was run: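 Erythrocytes infected with P. falciparum line (0.3% parasitemia, 2.5% hematocrit final) incubated with compounds 72 h at 37 °C, 5% CO2; SYBR Green lysis buffer added, fluorescence read next day. Normalized to 0.29 uM artemisinin and DMSO.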
Potency is the fitted concentration of half-maximal effect; tags give direction and shape of the fitted curve.

Row | Compound | Potency
1 | C[C@H]1Cc2c(COc3ccccc3)nc3c(c2CO1)CN(C(=O)C1CCCCC1)CC3 | inconclusive: 1.69 µM [inhibitor, partial curve]
2 | CC(C)[C@@H](OCc1ccccc1)[C@H](C)CON=C1[C@H]2CCn3c(=O)n(-c4ccccc4)c(=O)n3[C@@H]2[C@H](O)[C@@H]2O[C@H]12 | inconclusive: 4.26 µM [inhibitor, single point]
3 | COC(=O)C1=C(C(=O)OC)[C@@H]2Nc3ccccc3[C@@]23C[C@@H](C(=O)OC)N(C(=O)NCCBr)C3=N1 | active: 1.9 µM
4 | O=C1[C@@H]2[C@H]3[C@H](O)[C@H](O)CC(=NOC[C@@H](O)COCc4ccco4)[C@@H]3CC[C@H]2C(=O)N1Cc1ccccc1 | inconclusive: 2.13 µM [inhibitor, single point]
5 | O=C1OC2(CCCCC2)CC2=C1[C@H]1O[C@](c3ccsc3)(Cc3c1ccc1ccccc31)O2 | inactive
6 | CC(=O)OC[C@H]1O[C@@H](ON=C[C@@H](C)[C@H](OCc2ccccc2)C(C)C)[C@@H](OC(C)=O)[C@@H](OC(C)=O)[C@@H]1OC(C)=O | inactive
7 | CCCCc1nc2c(c3c1C[C@H](C)OC3)CN(C(=O)Cc1cccs1)CC2 | inactive
8 | CC(C)[C@@H](OCc1ccccc1)[C@H](C)C=NOC[C@@H](C)[C@H](OCc1ccccc1)C(C)C | inconclusive: 4.26 µM [inhibitor, single point]
9 | CC1=C[C@]2(O[C@H](COc3ccccc3)C1)C(=O)N(C)c1ccccc12 | inconclusive: 1.69 µM [inhibitor, partial curve, poor fit]
10 | COC(=O)CC=C[C@@H](C)[C@@H](C=NOC[C@H]1O[C@H](c2ccccc2)C=C[C@H]1Oc1ccc(OC)cc1)N[S+](=O)([O-])c1ccc(C)cc1 | inconclusive: 1.9 µM [inhibitor, single point]
11 | COC(=O)C(C(=O)OC)[C@@H]1O[C@@]23COC=C[C@]2(C)[C@@H]3c2ccccc21 | inconclusive: 2.39 µM [inhibitor, single point]
12 | CCc1cc2c(nc1CC)CCN(CCC(C)=NOCC[C@@H]1C=C[C@H](OC(C)=O)[C@@H](COC(C)=O)O1)C2 | inconclusive: 1.69 µM [inhibitor, single point]
13 | COCC=CC1=CC2=CC(=O)C(C)(OC(=O)c3cnc4ccccc4n3)C(=O)C2=CN1CC(C)C (stereo not given) | inconclusive: 0.151 µM [inhibitor, full curve, poor fit]
14 | C=C(C(=O)OCC)C(=O)c1ccccc1 | inactive
15 | COC(=O)C1=C(C(=O)OC)[C@@H]2N(Cc3ccccc3)c3ccccc3[C@@]23C[C@@H](C(=O)OC)N(C(=O)c2cccs2)C3=N1 | inconclusive: 4.26 µM [inhibitor, single point]
16 | COC(=O)CCCC1=CC2=CC(=O)C(C)(OC(=O)c3cccs3)C(=O)C2=CN1c1ccc(OC)cc1 (stereo not given) | inconclusive: 1.51 µM [inhibitor, single point] and inconclusive: 1.51 µM [inhibitor, partial curve]
17 | C[C@@H]1C=CCC(=O)N2[C@H](CC(=O)N[C@@H]1c1ccccc1)C[C@@H](C)[C@@H]2c1ccccc1 | inconclusive: 0.379 µM [inhibitor, single point]
18 | COc1ccc(O[C@H]2C=C[C@@H](c3ccccc3)O[C@H]2CON=C2c3cc(OC)ccc3O[C@H](c3cccc(OC)c3)[C@H]2O)cc1 | active: 1.69 µM
19 | COC(=O)CCC(=O)OC1(C)C(=O)C=C2C=C(C3CC3)OC=C2C1=O (stereo not given) | inconclusive: 1.51 µM [inhibitor, partial curve]
20 | CC1=CC[C@@H](COc2ccccc2)O[C@@]2(C1)C(=O)N(CC1CC1)c1ccccc12 | inconclusive: 3.01 µM [inhibitor, single point]

Row | Compound | Potency
21 | COc1ccc2c(c1)O[C@@H](c1cccc(C(F)(F)F)c1)[C@H](OC(=O)Nc1cc(OC)c(OC)c(OC)c1)C2=O | inconclusive: 1.69 µM [inhibitor, single point]
22 | C=CCN1C=C2C(=O)C(C)(OC(=O)CCC(=O)OC)C(=O)C(Br)=C2C=C1c1ccc(OC)cc1 (stereo not given) | inactive
23 | CCN1C(=NCc2ccc(OC)cc2)NC(c2cccc(C(F)(F)F)c2)C(C(=O)OC)=C1C (stereo not given) | inconclusive: 0.379 µM [inhibitor, single point]
24 | C#CCCCON=C1C[C@@H](O)[C@H](O)[C@H]2[C@@H]3C(=O)N(Cc4ccc5c(c4)OCO5)C(=O)[C@@H]3CC[C@@H]12 | inconclusive: 2.13 µM [inhibitor, single point]
25 | C=CCNC(=O)[C@H]1C=C(OC)C(=O)C[C@H](c2ccccc2)[C@H]1C | inconclusive: 0.213 µM [inhibitor, single point]
26 | Cc1cc(O)cc(O)c1C(=O)OC1(C)C(=O)C=C2C=C(C=CCO)OC=C2C1=O (stereo not given) | inactive
27 | C(#C[C@@H]1C=C[C@H]2OC(c3ccccc3)OC[C@H]2O1)c1ccccc1 (stereo not given in full) | inactive
28 | COc1ccc(N2C(=O)N3[C@H](c4ccccc4)[C@@H](C)C[C@H]4c5ccccc5C[C@]43C2=O)cc1 | inconclusive: 0.601 µM [inhibitor, partial curve]
29 | COC(=O)C1=C(C)N(CCc2cc(OC)c(OC)c(OC)c2)C(=O)NC1c1ccc(Br)cc1 (stereo not given) | inconclusive: 1.69 µM [inhibitor, partial curve]
30 | CCN1C(=NCc2cccc(C(F)(F)F)c2)NC(c2cccs2)C(C(=O)OC)=C1C (stereo not given) | inactive
31 | C=CC1=C2C=C(C3CC3)N(CC(C)C)C=C2C(=O)C(C)(OC(=O)c2ccco2)C1=O (stereo not given) | inconclusive: 2.13 µM [inhibitor, single point] and inconclusive: 1.2 µM [inhibitor, partial curve]
32 | CC(C)OCCCN1C=C2C(=O)C(C)(OC(=O)CCc3ccccc3)C(=O)C=C2C=C1c1ccc(C#N)cc1 (stereo not given) | inactive
33 | COC(=O)CCC(=O)OC1(C)C(=O)C2=CN(Cc3ccccc3)C(c3ccc(OC)cc3)=CC2=C(Br)C1=O (stereo not given) | inactive
34 | CC12C=C(C=CC=Cc3ccco3)C(C)(C1)C(C=Cc1ccco1)CC2=O (stereo not given) | inactive
35 | C=COCCN1C=C(C(=O)OCC)C(c2ccccc2)NC1=O (stereo not given) | inactive
36 | CCCCC1=CC2=C(c3ccco3)C(=O)C(C)(OC(=O)c3ccc(OC)cc3)C(=O)C2=CN1Cc1ccccc1 (stereo not given) | inactive
37 | COC1=C[C@H](C(=O)NC2CCN(Cc3ccccc3)CC2)[C@H](C)[C@@H](c2ccccc2)CC1=O | inconclusive: 0.301 µM [inhibitor, partial curve]
38 | CC1(OC(=O)C2CCCC2)C(=O)C=C2C=C(c3ccsc3)N(CCN3CCOCC3)C=C2C1=O (stereo not given) | inactive
39 | COC(=O)CCCC1=CC2=C(c3ccccc3)C(=O)C(C)(OC(=O)C3CCCC3)C(=O)C2=CN1c1ccc(OC)cc1 (stereo not given) | inconclusive: 1.51 µM [inhibitor, single point]
40 | CC(CCN1CCc2nc(-c3ccccc3)c(-c3ccccc3)cc2C1)=NOC[C@@H](O)COCc1ccco1 | inconclusive: 1.9 µM [inhibitor, partial curve, poor fit]
